PMC9804489, “Phase 1/1b Studies of UCB0599, an Oral Inhibitor of α‐Synuclein Misfolding, Including a Randomized Study in Parkinson's Disease” (Movement Disorders, 2022)

Key:
[1] = UP0077 phase 1b study: plasma PK of UCB0599 and its metabolites in participants with PD; assay type: in vivo, human; conditions: for AUC / Cmax / Tmax / half-life: human, plasma, oral; for AUC: read-out: AUC, geometric mean (CV%); for Cmax: read-out: C max, geometric mean (CV%); for Tmax: read-out: t max, median (range); for half-life: read-out: Half‐life, geometric mean (CV%) (converted)
Description: Statistical evaluations for all three studies were performed using SAS version 9.4 (SAS, Cary, NC, USA), and PK data were analyzed using Phoenix WinNonlin software (Certara, Princeton, NJ, USA). Continuous variables were summarized with number of participants, mean, standard deviation, median, minimum and maximum, and confidence intervals (CI) for the mean. Categorical variables were summarized with frequency counts and percentages.

[2] = UP0078 phase 1 food/ITZ study: safety and tolerability in healthy participants; conditions: UP0078, UCB0599 N=22
[3] = UCB0599 fraction unbound measured ex-vivo in plasma; assay type: in vitro ADME; conditions: human, plasma, oral, read-out: Fraction unbound, geometric mean (CV%)
Text: A linear, time‐independent, PK profile was observed, and the PK of multiple doses of UCB0599 were predictable from single‐dose exposures.

[4] = UCB0599 180 mg/day, day 28, n=7
[5] = UCB0599 360 mg/day, day 28, n=13

**Q.** For `CCCC[C@H](Cc1c[nH]c2ccccc12)NC(=O)c1cnc(N2CCN(C)CC2)s1` [UCB0599], which “t max, median (range)” value [1, 4] is on record?
**A.** 2.0 (1.5–4.0) h

**Q.** And the “t max, median (range)” value [1, 5]?
**A.** 2.0 (1.0–6.12) ^a h

**Q.** And the AUC ([1]; 180 mg/day, UCB0599 180 mg/day (90 mg twice daily), day 1, AUC 0 to 12 hours, n=7)?
**A.** 2230 ng·h/mL

**Q.** And the Cmax ([1]; 180 mg/day, UCB0599 180 mg/day, day 1, n=7)?
**A.** 417 ng/mL

**Q.** What about the AUC ([1]; 180 mg/day, UCB0599 180 mg/day, day 28, AUC for the dosing interval at steady state, n=7) of the same compound?
**A.** 3740 ng·h/mL

**Q.** And the Cmax ([1]; 180 mg/day, UCB0599 180 mg/day, day 28, n=7)?
**A.** 671 ng/mL

**Q.** What about the AUC ([1]; 360 mg/day, UCB0599 360 mg/day (180 mg twice daily), day 1, AUC 0 to 12 hours, n=14) of the same compound?
**A.** 3390 ng·h/mL

**Q.** What about the Cmax ([1]; 360 mg/day, UCB0599 360 mg/day, day 1, n=14) of the same compound?
**A.** 662 ng/mL

**Q.** What about the AUC ([1]; 360 mg/day, UCB0599 360 mg/day, day 28, AUC for the dosing interval at steady state, n=13) of the same compound?
**A.** 7650 ng·h/mL

**Q.** And the Cmax ([1]; 360 mg/day, UCB0599 360 mg/day, day 28, n=13)?
**A.** 1270 ng/mL

**Q.** And the Tmax ([1]; UCB0599 180 mg/day, day 1, n=7)?
**A.** 2 h

**Q.** And the half-life [1, 4]?
**A.** 10.7 h

**Q.** What about the Tmax ([1]; UCB0599 360 mg/day, day 1, n=14) of the same compound?
**A.** 2 h

**Q.** What about the half-life [1, 5] of the same compound?
**A.** 13.1 h

**Q.** And the “Discontinuations due to TEAEs” value [2]?
**A.** 0 n (%) […]

**Q.** What about the “Serious TEAEs” value [2] of the same compound?
**A.** 0 n (%) […]

**Q.** And the “Severe TEAEs” value [2]?
**A.** 0 n (%) […]

**Q.** What about the fraction unbound at 1 day ([3]; UP0077, UCB0599 180 mg/day, day 1, n=7) of the same compound?
**A.** 0.011

**Q.** And the fraction unbound at 28 day ([3]; UP0077, UCB0599 180 mg/day, day 28, n=7)?
**A.** 0.012

**Q.** And the fraction unbound at 1 day ([3]; UP0077, UCB0599 360 mg/day, day 1, n=13)?
**A.** 0.01

**Q.** And the fraction unbound at 28 day ([3]; UP0077, UCB0599 360 mg/day, day 28, n=10)?
**A.** 0.01

Where two headings read alike, the source gives them in different places. Marks after values point to notes of the source that are not given here.
